Patent publication US10299477B2 (priority 2015, dated 2019)

Test system: Colletotrichum orbiculare
Conditions: in vivo

SMILES	Test H (control value class)
COc1cc(OC)c(Cl)c(-c2ccc(=O)n(/C=C\F)c2-c2c(F)cc(F)cc2F)c1 [Compound 380]	H (key: H shows more than 50% of control values; L shows 50% or less of control values)
CCn1c(-c2c(F)cc(F)cc2F)c(-c2cc(F)ccc2Cl)cc(Br)c1=O [Compound 381, 3-bromo-5-(2-chloro-5-fluorophenyl)-1-ethyl-6-(2,4,6-trifluorophenyl)pyridine-2(1H)-one]	H (key: H shows more than 50% of control values; L shows 50% or less of control values)
O=c1ccc(-c2c(F)c(F)c(F)c(F)c2F)c(-c2c(F)cccc2F)n1CC(F)F [Compound 383]	L (key: H shows more than 50% of control values; L shows 50% or less of control values)
O=c1c(Cl)cc(-c2c(F)c(F)c(F)c(F)c2F)c(-c2c(F)cccc2F)n1CC(F)F [Compound 384]	L (key: H shows more than 50% of control values; L shows 50% or less of control values)
CCn1c(-c2c(F)cccc2F)c(-c2c(F)cccc2Cl)ccc1=O [Compound 385]	H (key: H shows more than 50% of control values; L shows 50% or less of control values)
CCn1c(-c2c(F)cc(OC)cc2F)c(-c2cc(F)ccc2Cl)cc(Cl)c1=O [Compound 386]	H (key: H shows more than 50% of control values; L shows 50% or less of control values)
CCn1c(-c2c(F)cccc2F)c(-c2cc(OC)ccc2Cl)cc(S(C)(=O)=O)c1=O [Compound 387]	L (key: H shows more than 50% of control values; L shows 50% or less of control values)
O=C1CCC(c2cc(F)ccc2Cl)=C(c2c(F)cccc2F)N1CC(F)F [Compound 388]	H (key: H shows more than 50% of control values; L shows 50% or less of control values)
CCCN1C(=O)CCC(c2cc(OC)ccc2Cl)=C1c1c(F)cccc1F [Compound 389]	L (key: H shows more than 50% of control values; L shows 50% or less of control values)
CCCCN1C(=O)CCC(c2cc(OC)ccc2Cl)=C1c1c(F)cccc1F [Compound 390]	L (key: H shows more than 50% of control values; L shows 50% or less of control values)
O=c1ccc(-c2cc(F)ccc2Cl)c(-c2c(F)cccc2F)n1CC(F)F [Compound 391]	H (key: H shows more than 50% of control values; L shows 50% or less of control values)
O=c1c(Br)cc(-c2cc(F)ccc2Cl)c(-c2c(F)cccc2F)n1CC(F)F [Compound 393]	H (key: H shows more than 50% of control values; L shows 50% or less of control values)
CCCCn1c(-c2c(F)cccc2F)c(-c2cc(OC)ccc2Cl)ccc1=O [Compound 394]	L (key: H shows more than 50% of control values; L shows 50% or less of control values)
CCCCn1c(-c2c(F)cccc2F)c(-c2cc(OC)ccc2Cl)cc(Cl)c1=O [Compound 395]	L (key: H shows more than 50% of control values; L shows 50% or less of control values)
CCCCn1c(-c2c(F)cccc2F)c(-c2cc(OC)ccc2Cl)cc(Br)c1=O [Compound 396]	L (key: H shows more than 50% of control values; L shows 50% or less of control values)
CCn1c(-c2c(F)cccc2F)c(-c2c(F)cccc2Cl)cc(Cl)c1=O [Compound 397]	H (key: H shows more than 50% of control values; L shows 50% or less of control values)
Cn1c(-c2c(F)cccc2F)c(-c2c(F)cccc2Cl)ccc1=O [Compound 398]	H (key: H shows more than 50% of control values; L shows 50% or less of control values)

SMILES	Test H (control value class)
CCCn1c(-c2c(F)cccc2F)c(-c2cc(OC)ccc2Cl)ccc1=O [Compound 399]	H (key: H shows more than 50% of control values; L shows 50% or less of control values)
CCCn1c(-c2c(F)cccc2F)c(-c2cc(OC)ccc2Cl)cc(Cl)c1=O [Compound 400]	H (key: H shows more than 50% of control values; L shows 50% or less of control values)
CCCn1c(-c2c(F)cccc2F)c(-c2cc(OC)ccc2Cl)cc(Br)c1=O [Compound 401]	H (key: H shows more than 50% of control values; L shows 50% or less of control values)
COCn1c(-c2c(F)cccc2F)c(-c2cc(OC)ccc2Cl)ccc1=O [Compound 402]	H (key: H shows more than 50% of control values; L shows 50% or less of control values)
CCn1c(-c2c(F)cc(F)cc2F)c(-c2cc(OC)ccc2Cl)ccc1=O [Compound 403]	H (key: H shows more than 50% of control values; L shows 50% or less of control values)
CCn1c(-c2c(F)cc(F)cc2F)c(-c2cc(OC)ccc2Cl)cc(Cl)c1=O [Compound 404]	H (key: H shows more than 50% of control values; L shows 50% or less of control values)
Cn1c(-c2c(F)cccc2F)c(-c2c(F)cccc2Cl)cc(Cl)c1=O [Compound 405]	H (key: H shows more than 50% of control values; L shows 50% or less of control values)
O=c1ccc(-c2c(F)cccc2Cl)c(-c2c(F)cccc2F)n1CC(F)F [Compound 406]	H (key: H shows more than 50% of control values; L shows 50% or less of control values)
O=c1c(Cl)cc(-c2c(F)cccc2Cl)c(-c2c(F)cccc2F)n1CC(F)F [Compound 407]	H (key: H shows more than 50% of control values; L shows 50% or less of control values)
CCn1c(-c2c(F)cccc2F)c(-c2ccc(Cl)cc2F)ccc1=O [Compound 408]	L (key: H shows more than 50% of control values; L shows 50% or less of control values)
COc1ccc(Cl)c(-c2ccc(=O)n(CC(F)(F)F)c2-c2c(F)cccc2F)c1 [Compound 409]	L (key: H shows more than 50% of control values; L shows 50% or less of control values)
COc1ccc(Cl)c(-c2cc(Cl)c(=O)n(CC(F)(F)F)c2-c2c(F)cccc2F)c1 [Compound 410]	H (key: H shows more than 50% of control values; L shows 50% or less of control values)
COc1ccc(Cl)c(-c2cc(Cl)c(=O)n(C(C)C)c2-c2c(F)cccc2F)c1 [Compound 413]	H (key: H shows more than 50% of control values; L shows 50% or less of control values)
COc1ccc(Cl)c(-c2ccc(=O)n(C)c2-c2c(F)cc(F)cc2F)c1 [Compound 415]	H (key: H shows more than 50% of control values; L shows 50% or less of control values)
COc1ccc(Cl)c(-c2cc(Cl)c(=O)n(C)c2-c2c(F)cc(F)cc2F)c1 [Compound 416]	H (key: H shows more than 50% of control values; L shows 50% or less of control values)
CCn1c(-c2c(F)cccc2F)c(-c2ccc(Cl)cc2F)cc(Cl)c1=O [Compound 417]	L (key: H shows more than 50% of control values; L shows 50% or less of control values)
